Laboratory results taken from PubChem BioAssay (NCI).
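Dose response: 5 concentrations. Exposure: 48 h. Format: 96-well plates. Endpoint: linear interpolation; highest concentration if not reached. At the GI50, growth is halved. Definition used: TGI = concentration required for complete inhibition of growth.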

Tested on: NCI-H322M lung
Assay: NCI anticancer screen, dose series, 48 h

SMILES	GI50	TGI
CCOC(=O)C(=Cc1ccc(-c2ccccc2)cc1)C(=O)OCC	3.07 µM	11.4 µM
CSc1ccc(NC(=O)C2CCCCC2C(=O)O)cc1 (stereo not given)		> 100 µM
O=C1Nc2ccccc2/C1=C/C(=N/c1nnc(-c2ccc(Cl)cc2)s1)c1ccccc1	12.3 µM	26.5 µM
COc1ccc2c(c1)C(=Nc1ccc(F)c(F)c1F)c1c-2c(Nc2ccc(F)c(F)c2F)nc2ccccc12	> 100 µM	> 100 µM
CCCCC(CCCC)=NNC(=S)SC		85 µM
O=C(c1ccccc1)N(C(=S)NCCc1ccc(Cl)cc1)c1ccc(Cl)cc1	14.2 µM	29.6 µM
Cc1ccc(NC(=O)CC(=O)n2nc(-c3ccccc3)c(N=Nc3ccccc3[N+](=O)[O-])c2-c2ccccc2)cc1		> 100 µM
Cc1ccc(Oc2ccc(C(=O)c3cccc(C(=O)c4ccc(Oc5ccc(C)cc5)cc4)n3)cc2)cc1		> 100 µM
CCOP(=O)(OCC)/C(=C\n1c(=S)[nH]c2cc(C)ccc21)C(=O)OC		> 100 µM
CC1(C)COC(c2ccc(C(=O)c3ccc(Cl)cc3)cc2)=N1		> 100 µM
O=C(Nc1nc(=S)[nH][nH]1)C(=O)C1C(=O)Nc2ccccc2S1=O (stereo not given)		> 100 µM
O=c1cccccc1NCCCCCCCCNc1cccccc1=O		> 100 µM
S=C(NCCc1ccccn1)c1nc[nH]c1C(=S)NCCc1ccccn1		> 100 µM
COCOCCCCCO[Si](C)(C)C(C)(C)C		> 100 µM
Cc1cc2nc3[nH]c4c(Cl)cc(Cl)cc4c3nc2cc1C		> 100 µM
COc1ccc2cnc(N)c(C#Cc3cc(C(=O)Nc4ccc(CN5CCN(C)CC5)c(C(F)(F)F)c4)cnc3C)c2c1	> 17.9 µM	> 26.7 µM
O=C1C2=Cc3ccccc3OC2(O)Oc2cc(O)cc(O)c21 (stereo not given)		> 100 µM
CC1(C)CCCC2(C)[C@@H]1CC[C@@]13CC(=O)[C@@](C)(CC[C@@H]21)C3 (stereo not given in full)		> 100 µM
C=CCC(NCc1ccccc1)[C@H](OCc1ccccc1)[C@@H]1COC(C)(C)O1 (stereo not given in full)		> 100 µM
COc1cc(Cl)cc(-c2nn(-c3cccc(NC(=O)c4cccc(C(F)(F)F)c4)c3)cc2-c2ccncc2)c1	> 100 µM	> 100 µM
C[C@]12CC[C@H](OC3CCCCO3)CC1=CC[C@@H]1C2CC[C@]2(C)/C(=N/OCCC#N)CCC12 (stereo not given in full)		> 100 µM
COc1ccc2c(N=[N+]=[N-])c(-c3ccccc3)c(=O)oc2c1		> 100 µM
COc1ccc2nc3n[nH]c(N)c3nc2c1		> 71.8 µM
COc1ccc(SS(=O)(=O)c2ccc(OC)cc2)cc1		> 100 µM
CCOC(=O)/C=C(\C)Sc1cc(O)c2ccccc2c1O		43.8 µM

SMILES	GI50	TGI
Cc1ccc2c(c1)C(=O)C(c1c(-c3[nH]c(=O)c4ccc(C)cc4c3O)c(O)c3ccccc3c1O)=NC2=O	2.24 µM	5.85 µM
Cc1nc2ccccc2c(=O)n1NC(=O)c1ccc(N)cc1		> 100 µM
Cc1cc(Cl)ccc1Nc1nc(C(F)(F)F)ccc1C(=O)N/N=C/c1cccc(O)c1	0.923 µM	7.15 µM
OCCOCCO/N=C1\C(c2c(O)[nH]c3ccccc23)=Nc2ccccc21		20.3 µM
CN1CCN(CCOc2ccc(-c3cnc4c(-c5cccc(F)c5F)cnn4c3)cc2)CC1	1.84 µM	3.81 µM
CN(C)C(=S)NC(=S)Nc1ccc2ccccc2c1		56.6 µM
CC(=O)c1c(-c2ccc(Cl)cc2)c(C#N)c(=S)n(C2OC(CO)C(O)C(O)C2O)c1-c1ccccc1 (stereo not given)		> 100 µM
CC(=O)O[C@@H]1C(C2CCCCC2)C=[N+]([O-])O[C@@H]1OC1CCCC1(c1ccccc1)c1ccccc1 (stereo not given in full)		31.5 µM
C[n+]1c2ccccc2c2/c(=C\C#N)c3ccccc3n21		57 µM
CC(=O)Oc1cn(-c2ccc(Cl)cc2)nc1C1=NN(C(C)=O)C(c2ccc(F)cc2F)O1 (stereo not given)	20.4 µM	56.9 µM
CN1CCN(CCCOc2ccc3ncnc(Nc4ccc(OCc5cccc(F)c5)c(Cl)c4)c3c2)CC1	0.565 µM	1.98 µM
c1ccc(CNc2ccc3[nH]c4cnccc4c3c2)cc1		33.3 µM
O=S(=O)(Nc1cccc(Cl)c1)c1ccc(-c2cnc(C3CC3)o2)cc1	7.24 µM	31.5 µM
CCCC(=O)OCC(COC(=O)CCC)OC(=O)CCC		> 100 µM
COc1cc2c(cc1OC)-c1cc(OC)c(OC)cc1[C@H]1CN3CCC[C@@]3(O)C=C21		0.000567 µM
COc1cc(O)c2c3c(ccnc13)-c1ccccc1N2	20.6 µM	92.4 µM
OC1CC1Sc1ccccc1 (stereo not given)		> 100 µM
O=C1c2ccccc2C(=O)c2[nH]c(Cc3ccccc3F)nc21		> 100 µM
CCOC(=O)Oc1ccc(C(CNC(C)C)OC(=O)OCC)cc1OC(=O)OCC (stereo not given)		> 100 µM
COc1ccc(-c2ncnc(-c3ccc(OC)c(OC)c3)n2)cc1OC		> 100 µM
COc1cccc(CNCCN2C(=O)c3ccc4c5c(ccc(c35)C2=O)C(=O)N(CCNCc2cccc(OC)c2)C4=O)c1	2.48 µM	7.79 µM
COC(=O)c1ccc2[nH]c(O)c(C(=Nc3ccc(N(C)C(=O)CN4CCN(C)CC4)cc3)c3cccc(OC)c3)c2c1	1.48 µM	6.24 µM
c1ccc2[nH]c(C3CCCCO3)nc2c1 (stereo not given)		> 100 µM
Cc1ccc2c(=O)cc(-c3ccc(Cl)cc3)[nH]c2n1		> 100 µM
COCC1OC(OC2OCC3OC4(OCC(O)(C(C)OC)C5OCOC54)OC3C2OC)C(OC)C(O)C1OC1OC(C)C(OC)C(OC2OC(C)C3OC4(CC(O)C(OC5CC(OC6CC(C)([N+](=O)[O-])C(OC)C(C)O6)C(OC(=O)c6c(C)c(Cl)c(O)c(Cl)c6OC)C(C)O5)C(C)O4)OC3(C)C2O)C1O (stereo not given)		> 100 µM

SMILES	GI50	TGI
COc1ccc(-c2nc(S(=O)(=O)c3ccccc3)c(S(=O)CC(=O)N3CCC(C)CC3)o2)cc1 (stereo not given)	8.14 µM	20.8 µM
Cc1ccc(/C(O)=C/c2nc3ccccc3[nH]c2=O)cc1		38.8 µM
CN1C(=O)C(O)CC1c1ccc(C(F)(F)F)cc1 (stereo not given)		> 100 µM
Cc1cc(Cc2c(C)c(C)c(Cc3cc(C)cc(C(C)(C)C)c3O)c(C)c2C)c(O)c(C(C)(C)C)c1		> 100 µM
O=c1cc(NNc2ccc(F)cc2)[nH]c(=O)[nH]1		> 100 µM
COc1ccc(-c2ccccc2)c(N/N=C2\CCCNC2=O)c1		> 100 µM
COC(=O)C1CC2c3c(c4ccccc4n3C)CC(C1=O)N2C (stereo not given)		> 100 µM
CC(=O)OCC1OC(n2c(C)c(C(C)=O)c(-c3ccc(Cl)cc3)c(C#N)c2=S)C(OC(C)=O)C(OC(C)=O)C1OC(C)=O (stereo not given)		> 100 µM
COc1ccc(/C=C/C(=O)c2cc(C(=O)O)c(OC)cc2OC)cc1OC		> 100 µM
C[C@@H]1OC(=O)C[C@H]2CC(=O)N(CCC3CN(C(=O)c4ccccc4)c4ccccc43)C[C@@H]21 (stereo not given in full)		> 100 µM
C(=C\c1cc(CCc2nc3ccccc3[nH]2)[nH]n1)/c1ccccc1		> 100 µM
CC(=O)N(C(C)=O)c1c(N)n(C)c(=O)[nH]c1=O		> 100 µM
Cn1c(CCC2(C)Cc3ccccc3C(=O)O2)cc2ccccc2c1=O (stereo not given)		> 100 µM
N#C/C(=C/c1cccc2ccccc12)C(=O)c1ccccc1		> 100 µM
Cc1[nH]n(-c2ncc(C#N)c(=O)[nH]2)c(=O)c1CCO		> 100 µM
CN(C)c1ccc2nc3ccc(=[N+](C)C)c([N+](=O)[O-])c-3sc2c1	4.82 µM	22 µM
CCc1n[nH]c(=S)n1/N=C/c1ccc(-c2ccc([N+](=O)[O-])cc2)o1		> 100 µM
CC(=O)/C(N=Nc1ccc(-n2c(C)nc3ccccc3c2=O)cc1)=C(/C)O		> 100 µM
[N-]=[N+]=NCC1OCC(O)C(OCc2ccccc2)C1OCc1ccccc1 (stereo not given)		> 100 µM
O=C(NC(N1CCN(c2cc3c(cc2F)c(=O)c(C(=O)O)cn3C2CC2)CC1)(C(F)(F)F)C(F)(F)F)c1ccccc1		93.3 µM
CN(C)CCNC(=O)c1cccc2c(NC(CCCN=C(N)N)C(=O)O)c3ccccc3[n+](C)c12 (stereo not given)		> 100 µM
NCCN1C(=O)c2cc(Cl)c(Cl)cc2C1(O)c1ccc(Cl)cc1 (stereo not given)		5.94 µM
O=C1/C(=C\c2cccc(Oc3ccccc3)c2)S(=O)(=O)C(c2ccccc2)N1c1cc(Cl)ccc1Cl (stereo not given)		> 100 µM
CCc1c(-c2ccccc2)[nH]c2ccccc2c1=O		> 100 µM
N[C@@H]1CCCC[C@@H]1N.O=P([O-])([O-])CNCP(=O)([O-])[O-].[Pt+2]	> 100 µM	> 100 µM

SMILES	GI50	TGI
COc1ccc2c(c1)CCc1cc(C(N)=O)c3nnnn3c1-2		> 100 µM
CCCCCCCCCCCCCCCC(=O)Nc1ccn(C2OC(CO)C(O)C2O)c(=O)n1 (stereo not given)		> 100 µM
C=C[C@]1(C)CC(O)C2C(=C)C(=O)OC2[C@H]1C(=C)C=O (stereo not given in full)		29.2 µM
C=C1C(=O)O[C@@H]2C[C@@H]3[C@]4(CC[C@]5(C)[C@@H]([C@H](C)CC/C=C(\C)C=O)CC[C@@]35C)C[C@]4(CCC(=O)OC)[C@H]12		6.12 µM
CC(CCc1ccccc1)NCC(O)n1c(/N=N/N(C)C)nc2c1c(=O)n(C)c(=O)n2C (stereo not given)		> 100 µM
Oc1cc2ccccc2cc1-c1n[nH]c(=S)n1CCc1ccccc1	75.1 µM	> 100 µM
CCN(C(C)=N)c1ccccc1		> 100 µM
CC(C)OC(=O)c1cc(NC(=O)C(C)(C)C)c(F)cc1Cl		> 100 µM
Cc1cccc(C)c1NC(=O)/C=C/c1ccccc1		> 100 µM
CCOC(=O)COc1ccc(OC)c2c1C(=O)CCC2		> 100 µM
CCOc1cc2ncc(C#N)c(Nc3ccc(F)c(Cl)c3)c2cc1NC(=O)CC1CCSS1 (stereo not given)	0.455 µM	1.02 µM
COC(=O)C1=C(C(=O)OC)C2(C)OC1C(=O)C21CC1 (stereo not given)		> 100 µM
N/N=C(\CCN1CCCC1)CC(c1ccccc1)c1c(O)c2ccccc2oc1=O (stereo not given)		> 100 µM
N=c1c2c(=S)n(-c3ccccc3)c(=S)n(-c3ccccc3)c2nc(SCCCN2CCCCC2)n1-c1ccccc1		3.46 µM
N#Cc1cc2c(cc1Cl)SC(=Nc1ccccc1)N(S(=O)(=O)c1ccc(Cl)cc1)S2(=O)=O	16.7 µM	35.9 µM
NC(N)=NCCCC(NC(=O)OCCCCCn1ccc(N)nc1=O)C(=O)O (stereo not given)		> 100 µM
CC(C)(O)C1CC[C@]2(C)CC[C@]3(C)[C@H](CC[C@@H]4[C@@]5(C)CC[C@H](O)C(C)(C)[C@@H]5CC[C@]43C)[C@@H]12 (stereo not given in full)		62.4 µM
CN(C)C(=O)Oc1ccc[n+](C)c1		> 100 µM
Cc1cccc(-n2c(C)nc3ccc(NC(=S)Nc4ccccc4)cc3c2=O)c1		> 100 µM
CC(=O)NC(CCCN(Cc1ccccc1)C(=O)NCCCl)C(=O)NCc1ccccc1 (stereo not given)		> 100 µM
Cn1ccnc1CCc1ccc(Cl)cc1Cl		> 100 µM
COc1ccc2c(c1)/C(=C\c1c(-c3ccccc3)nc3n1CCS3)C(=O)N2		44.6 µM
Cc1cc2nc(CS)[nH]c2cc1C	19.8 µM	54.2 µM
